# Experimental data: PubChem BioAssay AID602310 (National Center for Advancing Translational Sciences (NCATS), 2012)
# In all, about 410,000 compounds went through this assay and about 310 (0.076%) were called active. The inconclusive results got no clear call from the source; some entries with a clear call stand among them for comparison. Calls come from the whole dose curve; as a rule, active = well fitted curve in the direction sought with a large enough effect; inconclusive = small, poorly fitted or top-dose-only effect; inactive = flat fitted curve, though single readings scatter. A potency beside an inconclusive call is a rough fit, not a confirmed value.
# Biological target: DNA dC->dU-editing enzyme APOBEC-3G (Homo sapiens) (UniProt Q9HC16)
# Assay: qHTS for Inhibitors of Vif-A3G Interactions: qHTS; note: nearly all actives have a fitted effect of over 60% in size;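 for activity, negative = active: hits raise eYFP signal because A3G escapes Vif-driven loss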
# Conditions: HeLa A3G-eYFP + Vif (tagged APOBEC3G with the HIV-1 protein that degrades it), YFP fluorescence, overnight; series mostly up to 46.1 µM; activity, negative = active: at the top concentration
# Method in brief: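 HeLa cells stably expressing Vif and C-terminally eYFP-tagged A3G, seeded overnight at 37 deg C, then exposed to compound by pintool overnight at 37 deg C. Rise in yellow fluorescence (Ex 488/Em 500-530, Acumen) marks blocked Vif-driven A3G degradation.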
# % is set by controls: 0 for no effect and ±100 for the full control effect; potency is the fitted concentration of half-maximal effect; tags give direction and shape of the fitted curve.
# Chain of UniProt Q9HC16 (Q9HC16 whole entry, looked up): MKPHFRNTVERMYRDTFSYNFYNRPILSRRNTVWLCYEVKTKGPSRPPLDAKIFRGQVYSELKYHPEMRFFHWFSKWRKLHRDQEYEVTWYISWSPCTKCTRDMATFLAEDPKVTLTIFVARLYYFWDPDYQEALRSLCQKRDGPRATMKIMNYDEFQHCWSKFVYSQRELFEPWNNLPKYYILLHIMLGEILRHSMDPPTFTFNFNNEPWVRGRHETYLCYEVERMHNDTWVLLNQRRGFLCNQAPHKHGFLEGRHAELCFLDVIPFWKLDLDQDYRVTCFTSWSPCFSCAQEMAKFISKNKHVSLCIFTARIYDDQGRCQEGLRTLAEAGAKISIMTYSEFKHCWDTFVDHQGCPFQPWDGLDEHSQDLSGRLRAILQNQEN
Compound,Potency,"activity, negative = active"
COc1ccc(NC(=O)C2Cc3c(-c4cccc(NC(C)=O)c4)ccnc3O2)cn1 (stereo unspecified),"inconclusive: 4.47 µM [inhibitor, full curve]",
CSc1nc2ccccc2cc1/C=C(\C#N)c1cccc(C)c1,"inconclusive: 6.31 µM [inhibitor, partial curve, poor fit]",
CC1C/C(=C/c2cccn2C)C(=O)/C(=C/c2cccn2C)C1 (stereo unspecified),"inconclusive: 5.01 µM [inhibitor, single point]",
COc1nc(-c2ccccc2)ccc1-c1noc(-c2ccco2)n1,,inactive: -1.34%
Cc1cc(C)cc(N(CCC(=O)Nc2nnc(C)s2)S(=O)(=O)c2ccc(Cl)cc2)c1,"inconclusive: 3.98 µM [inhibitor, full curve, poor fit]",
COc1ccc2c(c1OC)OCC2C (stereo unspecified),"inconclusive: 17.8 µM [inhibitor, single point]",
COc1ccc(OC)c(COC(=O)c2cc([N+](=O)[O-])ccc2N2CCOCC2)c1,"inconclusive: 2.24 µM [inhibitor, full curve]",
CC(=O)Nc1ccc(CN(C)c2c(C)nc3ccc(C(=O)Nc4ccc(Cl)c(Cl)c4)cn23)cc1,,inactive: 1.69%
CC(=O)Oc1ccc(C23c4ccccc4C2(OC(C)=O)c2cc(OC(C)=O)ccc23)cc1 (stereo unspecified),"inconclusive: 35.5 µM [inhibitor, single point]",
COC(C[C@@H]1O[C@H]1C(=O)[C@@H](C)OCc1ccccc1)OC,"inconclusive: 22.4 µM [inhibitor, partial curve, poor fit]",
Cc1cccc(Cc2c(C)nc3nc(SCC(=O)NCc4ccccc4)nn3c2C)c1,"inconclusive: 31.6 µM [inhibitor, single point]",
CC(C)(C)C(=O)/C=C(\N)c1ccncc1,"inconclusive: 35.5 µM [inhibitor, single point]",
Cc1ccc2nccc(/C=C/c3ccc(N(C)C)cc3)c2c1,active: 3.55 µM,
COc1cccc(/C=N/NC(=O)c2cc3c(OC)cccc3[nH]2)c1OC,"inconclusive: 22.4 µM [inhibitor, single point]",
O=C1NC2=C(CCc3ccccc32)C(c2ccc(Br)cc2)N1 (stereo unspecified),"inconclusive: 35.5 µM [inhibitor, single point]",
CCc1nnc(NC(=O)CSc2nnc3c4ccccc4n(C)c3n2)s1,,inactive: -0.588%
O=C(CSc1nc(-c2ccco2)cc(C(F)(F)F)n1)Nc1ccc2c(c1)CCC2,"inconclusive: 35.5 µM [inhibitor, single point]",
Cc1cc(N(C)C)c(C)cc1/C=C/c1ccnc2ccccc12,active: 14.1 µM,

Compound,Potency,"activity, negative = active"
CC1(C)COC(Cn2c3ccccc3c3ccccc32)O1 (stereo unspecified),"inconclusive: 15.8 µM [inhibitor, partial curve, poor fit]",
Cc1cc(/C=C2\SC(=S)NC2=O)c(C)n1-c1cccc(O)c1,"inconclusive: 7.94 µM [inhibitor, partial curve, poor fit]",
COc1ccccc1CNC(=O)C(Cc1ccccc1)NS(=O)(=O)c1ccc2c(c1)CCN2C(C)=O (stereo unspecified),,inactive: -13.6%
COc1cccc(C2=CC(c3ccccc3)n3nnnc3N2)c1 (stereo unspecified),"inconclusive: 3.55 µM [inhibitor, partial curve]",
CC(C)CC1=NN(C(=O)c2ccncc2)C(O)(C(F)(F)F)C1 (stereo unspecified),,inactive: -0.816%
COc1ccc(-c2cc(-c3cccs3)c(C#N)c(SCC(=O)NCc3ccco3)n2)cc1,"inconclusive: 0.631 µM [inhibitor, full curve, poor fit]",
O=S(=O)(Nc1cc(Br)cc2cccnc12)c1ccccc1,"inconclusive: 6.31 µM [inhibitor, partial curve, poor fit]",
CC1=C(C(=O)Nc2ccccc2F)C(c2ccsc2)C2=C(CC(C)(C)CC2=O)N1 (stereo unspecified),"inconclusive: 7.08 µM [inhibitor, partial curve, poor fit]",
COc1ccc(-c2csc(C3=C(O)CN(Cc4ccc(Cl)cc4)C3=N)n2)cc1OC,"inconclusive: 20 µM [inhibitor, single point]",
Nc1ncnc2c1ncn2C1OC(CO)C(O)C1O (stereo unspecified),,inactive: 1.03%
COc1cc(C(=O)Nc2nc3ccccc3s2)ccc1OCc1c(C)noc1C,,inactive: -18.1%
S=C(NNC(=S)Nc1ccccc1)Nc1ccccc1,,inactive: 7.71%
NNC(=O)c1[nH]c2ccc(Br)cc2c1-c1ccccc1,"inconclusive: 17.8 µM [inhibitor, single point]",
O=c1cc(-c2ccccc2)[nH]c2ccccc12,"inconclusive: 2 µM [inhibitor, full curve, poor fit]",
C/C(=N\NC(=O)c1cccc(Br)c1)c1ccccn1,"inconclusive: 5.62 µM [inhibitor, partial curve]",
C=CCCC(=O)Nc1nc(C)c(-c2csc(Nc3cc(OC)ccc3OC)n2)s1,"inconclusive: 1.58 µM [inhibitor, full curve, poor fit]",
O=C1c2ccccc2S(=O)(=O)c2cc(N3CCC(C(=O)N4CCCCC4)CC3)ccc21,"inconclusive: 12.6 µM [inhibitor, single point]",
CC(=NNc1nc2ccccc2s1)c1ncccn1,"inconclusive: 17.8 µM [inhibitor, single point]",
